Among all 310,000 compounds or so, about 14,000 (4.5%) showed an effect of 50% or more. The effect is printed as a negative number. This is one part of the list.
Molecular target: human ether-à-go-go-related gene (hERG) potassium channel (human, UniProt Q12809)
Assay: primary screen, population patch clamp on CHO cells stably expressing hERG
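Also: peak tail current of the secondary pulse compared with the same well before compound.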

human ether-à-go-go-related gene (hERG) potassium channel, sequence (Q12809 whole entry, looked up): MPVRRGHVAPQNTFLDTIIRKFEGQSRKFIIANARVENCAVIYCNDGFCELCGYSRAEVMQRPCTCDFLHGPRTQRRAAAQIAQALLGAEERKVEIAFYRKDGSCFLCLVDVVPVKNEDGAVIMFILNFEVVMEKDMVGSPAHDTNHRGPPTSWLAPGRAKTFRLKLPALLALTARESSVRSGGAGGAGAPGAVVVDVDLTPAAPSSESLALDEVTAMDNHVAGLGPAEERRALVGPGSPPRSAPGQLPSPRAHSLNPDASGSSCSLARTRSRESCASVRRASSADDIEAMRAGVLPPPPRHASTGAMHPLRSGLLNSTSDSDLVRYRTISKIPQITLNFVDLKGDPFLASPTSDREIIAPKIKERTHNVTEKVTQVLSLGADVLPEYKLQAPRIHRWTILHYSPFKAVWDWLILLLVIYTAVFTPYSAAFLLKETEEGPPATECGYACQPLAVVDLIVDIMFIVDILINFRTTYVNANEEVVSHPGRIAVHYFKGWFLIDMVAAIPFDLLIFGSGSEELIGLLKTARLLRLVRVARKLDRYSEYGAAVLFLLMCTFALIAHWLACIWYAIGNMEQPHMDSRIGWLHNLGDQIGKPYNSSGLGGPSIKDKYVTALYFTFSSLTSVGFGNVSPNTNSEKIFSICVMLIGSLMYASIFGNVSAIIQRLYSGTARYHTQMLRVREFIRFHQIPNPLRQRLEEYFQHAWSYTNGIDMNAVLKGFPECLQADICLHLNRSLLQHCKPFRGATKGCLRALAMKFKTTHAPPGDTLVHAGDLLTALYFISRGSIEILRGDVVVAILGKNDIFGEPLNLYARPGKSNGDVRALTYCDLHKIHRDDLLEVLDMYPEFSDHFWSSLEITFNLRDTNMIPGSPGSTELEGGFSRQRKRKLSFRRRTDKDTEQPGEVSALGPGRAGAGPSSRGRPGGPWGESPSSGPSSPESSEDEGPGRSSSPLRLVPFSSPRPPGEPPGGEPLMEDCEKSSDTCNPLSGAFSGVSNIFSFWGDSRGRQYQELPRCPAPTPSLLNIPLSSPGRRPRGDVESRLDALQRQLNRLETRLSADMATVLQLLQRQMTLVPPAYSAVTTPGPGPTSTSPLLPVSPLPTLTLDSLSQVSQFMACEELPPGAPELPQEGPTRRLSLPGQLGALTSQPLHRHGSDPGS

| SMILES | hERG current change (%, negative = inhibition) at 10uM |
| --- | --- |
| O=C(c1cnn2ccccc12)N(Cc1ccco1)C1CCCC1 | 4.7% |
| COc1ccc(Cl)cc1C(=O)C1CCCN(Cc2cnc(C)s2)C1 (stereo not drawn) | -38.1% |
| Nc1c(Cl)cc(-c2csc(NCCc3nc4cc(Cl)c(Cl)cc4n3CCCO)n2)cc1Cl | 19.4% |
| COc1ccccc1CNS(=O)(=O)c1ccc(-n2cnnn2)c(C)c1 | 7.04% |
| Cc1csc(SCC(=O)N(C)CC(=O)Nc2ccccc2Cl)n1 | -27.8% |
| O=C(NC1CC1)C1CCN(c2ccc(S(=O)(=O)N3CCOCC3)cc2)CC1 | 0.346% |
| Cc1cc(C(=O)NC2=NCCS2)c2ccccc2n1 | 10.9% |
| Cn1cc(C=C2C(=O)CC(C)(C)CC2=O)c2ccccc21 | 14.3% |
| Cc1ccccc1Cc1c(C)nc2nc(SCC(=O)NCCCN3CCCC3)nn2c1C | 10.8% |
| CC1NC(=S)N(Cc2ccccc2)C1=O (stereo not drawn) | 12.9% |
| COc1cccc(CNC(=O)C(NS(=O)(=O)c2ccc3c(c2)CCN3C(C)=O)C(C)C)c1 (stereo not drawn) | 15.8% |
| CN(C)S(=O)(=O)c1ccc(N2CCOCC2)nc1 | 12% |
| O=C(N/N=C/c1ccccc1OC(F)F)C1=COCCO1 | -7.69% |
| CN(C)CCN1C(=O)C(O)=C(C(=O)c2cc3ccccc3o2)C1c1ccc(N(C)C)cc1 (stereo not drawn) | 0.454% |
| CCCC/C(C)=N/NC(=O)CN(c1ccc(Br)cc1)S(=O)(=O)c1ccccc1 | -12.4% |
| CC12CCCC[C@@H]1CCC1C2CCC2(C)C1CC[C@@]2(O)CNCCO (stereo partly drawn) | 15% |
| CC1CCCN(C(=O)CSc2cnc3ccccc3n2)C1 (stereo not drawn) | -12.5% |
| O=C(c1cnn(-c2ccccc2)c1)c1ccc2ccccc2c1O | 11.9% |
| CCOC(=O)N1CCC(n2c(SCC(=O)N3CCC(C)CC3)nc3ccccc3c2=O)CC1 | -47.9% |
| CCC(=O)NC(c1ccc(Cl)cc1Cl)c1ccc2cccnc2c1O (stereo not drawn) | -0.357% |
| CC1CCCC(C)N1C(=O)COC(=O)c1ccc2c(c1)OCO2 (stereo not drawn) | 4.65% |
| COc1ccc(OC)c(NC(=O)COC(=O)Cn2nnc(-c3ccccc3)n2)c1 | 2.66% |
| OCCN(CC(O)COc1ccccc1)CC(O)Cn1ccc2ccccc21 (stereo not drawn) | -32.5% |

| SMILES | hERG current change (%, negative = inhibition) at 10uM |
| --- | --- |
| CC(NC(=O)c1ccccc1F)c1nnc(SCC(=O)NC2CCCCC2)n1C (stereo not drawn) | 21.5% |
| CC(=O)Oc1ccccc1-n1c(C)nc(=O)c(-c2ccccc2)c1C | -4.2% |
| Cc1cc(C)n(-c2nc3c(c(=O)[nH]c(=O)n3C)n2CC(O)c2ccccc2)n1 (stereo not drawn) | -8.07% |
| CS(=O)(=O)N1CCC(C(=O)N2CCN(c3ccc(F)cc3)CC2)CC1 | 2.03% |
| COc1ccc(/C=N/NC(=O)c2ccc(=O)n(C)c2)cc1OC | 17.6% |
| CCC(C)(C)NC(=O)c1cc([N+](=O)[O-])ccc1N1CCOCC1 | -37.3% |
| CCc1ccc(N(CC)C(=O)c2ccc3c(Cl)c4c(nc3c2)CCC4)cc1 | 0.386% |
| Cc1ccc(C(=O)Cn2nc(C(=O)O)c3ccccc3c2=O)cc1C | 24.4% |
| Cc1ccc(C)c(OCCNc2ccc([N+](=O)[O-])cn2)c1 | 1.78% |
| Cc1ccc(CN2CCN(CC(=O)NCc3ccc(Cl)cc3)C2=O)cc1 | -50.4% |
| CCOc1ccccc1OCCCC(=O)N(CC)CC(=O)Nc1c(F)cccc1F | -1.78% |
| CC(=O)C(=Cc1ccc(O)cc1)C(C)=O | 17.3% |
| CC1(C)Cc2c(C#N)c(SCC(=O)c3ccccc3)nc(N3CCOCC3)c2CS1 | 3.44% |
| OCCCn1c(CCCNc2nc(-c3cccc(Br)c3)cs2)nc2cc(Cl)c(N3CCCCC3)cc21 | 1.7% |
| CCOC(=O)c1cc(C#N)c(N2CCN(C)CC2)nc1-c1ccccc1 | -49.2% |
| O=C(CSCc1ccccc1Cl)NCCSc1ccccn1 | 10.6% |
| Cc1cccc(/C=N/n2c(-c3cc(-c4ccccc4)n[nH]3)n[nH]c2=S)c1 | 16.4% |
| CC(=O)N1c2ccc(S(=O)(=O)NCc3ccco3)cc2CC1C (stereo not drawn) | -7.2% |
| CCC(=O)Nc1ccc(/C(C)=N\NC(=O)c2ccc(OC)cc2)cc1 | -1.87% |
| CCN(CCN(C)C)C(=O)c1ccc2c(c1NCCO)C(=O)c1ccccc1C2=O | -35.5% |
| O=C(CCN1C(=O)/C(=C\c2ccccc2)SC1=S)NNC(=O)c1ccncc1 | 20.3% |
| CCOC(=O)c1nnsc1Nc1ccc(C)c(C)c1 | 23.3% |
| CC(C)C(NC(=S)NCc1ccccc1)C(=O)O (stereo not drawn) | 11.3% |

| SMILES | hERG current change (%, negative = inhibition) at 10uM |
| --- | --- |
| Cc1cccnc1-n1c(C)nc2ccccc2c1=O | 7.13% |
| CC(C)(C)n1nnnc1CN1CCC(NC(=O)NC2CCCCC2)CC1 | -11.3% |
| Cn1cc(SCC(=O)N2CCN(c3ccccc3)CC2)c2ccccc21 | -8.45% |
| COc1ccc(-c2cc3c(nn2)-c2ccccc2C3=O)cc1 | 6.02% |
| COc1ccc(OC)c(N(CC(=O)Nc2ccc3c(c2)OCCO3)S(C)(=O)=O)c1 | 9.64% |
| CCOC(=O)c1c(C)[nH]c(C(=O)CC(=O)OC)c1C | 22.4% |
| Fc1ccc(-c2nnc(SCc3cccnc3)o2)cc1 | -3.91% |
| O=C(Nc1nnc(-c2cccnc2)o1)c1cccc([N+](=O)[O-])c1 | 13.8% |
| O=C(Nc1cc(Cl)cc(Cl)c1)c1cccc(OC(F)F)c1 | -2.79% |
| COc1ccc(C(=O)Nc2c(N)nc(SCC(=O)Nc3ccc(NC(C)=O)cc3)[nH]c2=O)cc1 | 21.9% |
| COc1ccc(C2=NN(C(=O)CSc3nc(=O)n4cc(C)ccc4n3)C(c3ccc(C)cc3)C2)cc1 (stereo not drawn) | -16.2% |
| CC(=O)N1[C@H](C)C=C[C@]1(Cc1ccccc1)C(=O)O | 14.8% |
| CC1(C)C(c2ccco2)=[N+]([O-])C2(CCCCC2=O)N1O (stereo not drawn) | 6.75% |
| Cc1ccc(NC(=O)COC(=O)[C@H](C)NC(N)=O)c(C)c1 | 15.1% |
| O=C(c1ccccc1)N1CCN(S(=O)(=O)N2CCOCC2)CC1 | 16.8% |
| Cc1cc(C)nc(SCc2ccc3nonc3c2)n1 | -9.11% |
| CCOc1ccc(/C=N/OCC(=O)NCc2ccc3c(c2)OCO3)cc1OC | 14.8% |
| Cn1c(=O)cc(OCC(=O)NCc2cccnc2)c2ccccc21 | -2.8% |
| Cc1ccc(NC(=O)CSc2nc(=O)n(CCCN3CCOCC3)c3c2CCCC3)cc1F | -50.2% |
| NNC(=O)c1cc(-c2cccs2)nc2ccccc12 | -2.34% |
| Cc1cccn2c(=O)nc(SCC(=O)N3CCCCC3)nc12 | -18.6% |
| O=C(Nc1cccc(C(F)(F)F)c1)c1cnc2n(c1=O)CCS2 | 6.8% |
| CCc1cccc(CC)c1NC(=O)COC(=O)C1(c2ccc(Cl)cc2)CCCC1 | 14.2% |

| SMILES | hERG current change (%, negative = inhibition) at 10uM |
| --- | --- |
| COCCCN1C(=O)N(c2ccc(F)cc2)C(=O)C1CC(=O)Nc1ccccc1 (stereo not drawn) | 10.7% |
| CCCC(=O)c1c(NC(C)C)cc(C)oc1=O | 10.7% |
| CCSc1oc(-c2ccco2)nc1S(=O)(=O)c1ccc(C)cc1 | -3.01% |
| Cc1c(Br)c(O)c(Br)c2sc(=O)oc12 | 11.9% |
| O=C(Nc1cccc2c1CCCC2)C1CCN(c2nnnn2-c2ccccc2)CC1 | -6.61% |
| COc1cccc(N2CCN(c3nc(C)c(C)c(=O)[nH]3)CC2)c1 | 5.02% |
| CCOc1cc(C2C(C(=O)N3CCCCC3)=C(C)NC3=C2C(=O)CC(C)(C)C3)ccc1O (stereo not drawn) | -1.34% |
| CCOCCCNc1ccc(N2C(=O)CCCC2=O)cc1[N+](=O)[O-] | 22.7% |
| COc1ccc(C)cc1S(=O)(=O)Nc1ccc(F)c(Cl)c1 | -6.06% |
| O=c1oc(-c2ccccc2)nc2c1C1(CCCCC1)Cc1ccccc1-2 | 8.5% |
| CC(C)(C)NCCOCCOc1ccc(Cl)cc1C(C)(C)C.O=C(O)C(=O)O | 0.207% |
| O=C(c1ccccc1)c1nc[nH]c1C(=O)Nc1ccccn1 | 11.8% |
| Cc1ccc(C(=O)CSc2ccccn2)cc1 | -7.25% |
| S=C(NCCCN1CCOCC1)Nc1ccc(Cl)c(Cl)c1 | -40.1% |
| CS(=O)(=O)N(CCc1ccccc1)CC(=O)NCc1ccccc1Cl | -15.7% |
| CCc1nnc(NC(=O)CSc2ccc(-c3ccc(-n4cccn4)cc3)nn2)s1 | 11.3% |
| Cc1cc(C)c2nc(SCCC#N)nc(C)c2c1 | -14.4% |
| NC(=O)C1CCN(C(=O)c2ccco2)CC1 | 5.96% |
| COc1cccc(-c2cc(N3C(=O)Nc4ccccc4N3O)n[nH]2)c1 | 3.16% |
| Cn1cc(C(c2ccccc2OCC(=O)O)c2cn(C)c3ccccc23)c2ccccc21 | 3.58% |
| NC(N)=Nc1nc2ccc(Cl)cc2c(=O)[nH]1 | 11.5% |
